Test results taken from article PMC6827562 (Structure (London, England : 1993), 2019).

Target: T1, ASPP2_(905–1128) (human, UniProt Q13625 905-1128)
T1 sequence (looked up): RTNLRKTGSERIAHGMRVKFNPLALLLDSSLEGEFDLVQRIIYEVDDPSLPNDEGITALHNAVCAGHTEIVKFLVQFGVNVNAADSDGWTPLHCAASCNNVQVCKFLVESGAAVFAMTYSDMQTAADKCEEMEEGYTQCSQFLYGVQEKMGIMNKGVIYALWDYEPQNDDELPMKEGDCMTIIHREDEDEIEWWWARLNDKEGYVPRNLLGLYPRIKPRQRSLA
Experiment: native gel or EMSA

B1: p53 DBD ([…]) (domain or fragment)
chain: not shown
B1: binds.
